B1: human WT mGluR6, complex-glycosylated form (band C) [modified: complex N-linked glycosylation (Endo H-resistant, band C); complex N-linked glycosylation (Endo H-resistant, band C)] [human] / human ELFN1 extracellular domain … (parent)
chain 1: GLARAAGSVRLAGGLTLGGLFPVHARGAAGRACGQLKKEQGVHRLEAMLYALDRVNADPELLPGVRLGARLLDTCSRDTYALEQALSFVQALIRGRGDGDEVGVRCPGGVPPLRPAPPERVVAVVGASASSVSIMVANVLRLFAIPQISYASTAPELSDSTRYDFFSRVVPPDSYQAQAMVDIVRALGWNYVSTLASEGNYGESGVEAFVQISREAGGVCIAQSIKIPREPKPGEFSKVIRRLMETPNARGIIIFANEDDIRRVLEAARQANLTGHFLWVGSDSWGAKTSPILSLEDVAVGAITILPKRASIDGFDQYFMTRSLENNRRNIWFAEFWEENFNCKLTSSGTQSDDSTRKCTGEERIGRDSTYEQEGKVQFVIDAVYAIAHALHSMHQALCPGHTGLCPAMEPTDGRMLLQYIRAVRFNGSAGTPVMFNENGDAPGRYDIFQYQATNGSASSGGYQAVGQWAETLRLDVEALQWSGDPHEVPSSLCSLPCGPGERKKMVKGVPCCWHCEACDGYRFQVDEFTCEACPGDMRPTPNHTGCRPTPVVRLSWSSPWAAPPLLLAVLGIVATTTVVATFVRYNNTPIVRASGRELSYVLLTGIFLIYAITFLMVAEPGAAVCAARRLFLGLGTTLSYSALLTKTNRIYRIFEQGKRSVTPPPFISPTSQLVITFSLTSLQVVGMIAWLGARPPHSVIDYEEQRTVDPEQARGVLKCDMSDLSLIGCLGYSLLLMVTCTVYAIKARGVPETFNEAKPIGFTMYTTCIIWLAFVPIFFGTAQSAEKIYIQTTTLTVSLSLSASVSLGMLYVPKTYVILFHPEQNVQKRKRSLKATSTVAAPPKGEDAEAHK
chain 2: DCWLIEGDKGFVWLAICSQNQPPYEAIPQQINSTIVDLRLNENRIRSVQYASLSRFGNLTYLNLTKNEIGYIEDGAFSGQFNLQVLQLGYNRLRNLTEGMLRGLGKLEYLYLQANLIEVVMASSFWECPNIVNIDLSMNRIQQLNSGTFAGLAKLSVCELYSNPFYCSCELLGFLRWLAAFTNATQTYDRMQCESPPVYSGYYLLGQGRRGHRSILSKLQSVCTEDSYAAEVVGPPRPASGRSQPGRSPPPPPPPEPSDMPCADDECFSGDGTTPLVALPTLATQAEARPLIKVKQLTQNSATITVQLPSPFHRMYTLEHFNNSKASTVSRLTKAQEEIRLTNLFTLTNYTYCVVSTSAGLRHNHTCLTICLPRLPSPPGPVPSPSTATHY

Variants of: B1
Experiment: pull-down
Details: with human ELFN1 extracellular domain fused to Fc [human]; For TM mutants, four times more transfected cells were used; parent: 1; read off a plot

Compared with chain 1 E757K, chain 1 Q673L is lower in ratio to parent: 0.43 for the first, 0.38 for the second.

For chain 1 R653C, the ratio to parent was 0.22.
